Experimental findings from paper PMC9911399, “Two distinct binding modes provide the RNA-binding protein RbFox with extraordinary sequence specificity” are described below.

The labels stand for the following.
T1: RBFOX1 RRM (Homo sapiens, UniProt Q9NWB1 109-208)
T1 sequence: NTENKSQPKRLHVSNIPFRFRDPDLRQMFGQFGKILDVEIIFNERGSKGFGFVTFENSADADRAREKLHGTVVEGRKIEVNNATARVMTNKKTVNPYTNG

B1: AUCCUCC (DNA:RNA)
RNA: GGGAGACCGGAAUUCAGAUUGUCCAUCCUCCUUAAAUCCCGUCGUAGCCACCA
DNA 1: CAATCTGAATTCCGGTCTCCC
DNA 2: TGGTGGCTACGACGGGATT
B2: CCGGUUG (DNA:RNA)
RNA: B1 RNA with A25C, U26C, C27G, C28G, C30U, C31G
DNA 1: CAATCTGAATTCCGGTCTCCC
DNA 2: TGGTGGCTACGACGGGATT
B3: CCACGAA (DNA:RNA)
RNA: B1 RNA with A25C, U26C, C27A, U29G, C30A, C31A
DNA 1: CAATCTGAATTCCGGTCTCCC
DNA 2: TGGTGGCTACGACGGGATT
B4: CUUUUUC (DNA:RNA)
RNA: B1 RNA with A25C, C27U, C28U, C30U
DNA 1: CAATCTGAATTCCGGTCTCCC
DNA 2: TGGTGGCTACGACGGGATT
B5: GACGGCU (DNA:RNA)
RNA: B1 RNA with A25G, U26A, C28G, U29G, C31U
DNA 1: CAATCTGAATTCCGGTCTCCC
DNA 2: TGGTGGCTACGACGGGATT
B6: AUUCGCA (DNA:RNA)
RNA: B1 RNA with C27U, U29G, C31A
DNA 1: CAATCTGAATTCCGGTCTCCC
DNA 2: TGGTGGCTACGACGGGATT
B7: UAAUAUC (DNA:RNA)
RNA: B1 RNA with A25U, U26A, C27A, C28U, U29A, C30U
DNA 1: CAATCTGAATTCCGGTCTCCC
DNA 2: TGGTGGCTACGACGGGATT
B8: UGCGUCU (DNA:RNA)
RNA: B1 RNA with A25U, U26G, C28G, C31U
DNA 1: CAATCTGAATTCCGGTCTCCC
DNA 2: TGGTGGCTACGACGGGATT
B9: GCUCUCG (DNA:RNA)
RNA: B1 RNA with A25G, U26C, C27U, C31G
DNA 1: CAATCTGAATTCCGGTCTCCC
DNA 2: TGGTGGCTACGACGGGATT
B10: GAAUACU (DNA:RNA)
RNA: B1 RNA with A25G, U26A, C27A, C28U, U29A, C31U
DNA 1: CAATCTGAATTCCGGTCTCCC
DNA 2: TGGTGGCTACGACGGGATT
B11: CGCUUUU (DNA:RNA)
RNA: B1 RNA with A25C, U26G, C28U, C30U, C31U
DNA 1: CAATCTGAATTCCGGTCTCCC
DNA 2: TGGTGGCTACGACGGGATT
B12: CGGUGCG (DNA:RNA)
RNA: B1 RNA with A25C, U26G, C27G, C28U, U29G, C31G
DNA 1: CAATCTGAATTCCGGTCTCCC
DNA 2: TGGTGGCTACGACGGGATT
B13: GGAUCGC (DNA:RNA)
RNA: B1 RNA with A25G, U26G, C27A, C28U, U29C, C30G
DNA 1: CAATCTGAATTCCGGTCTCCC
DNA 2: TGGTGGCTACGACGGGATT
B14: AUACGUA (DNA:RNA)
RNA: B1 RNA with C27A, U29G, C30U, C31A
DNA 1: CAATCTGAATTCCGGTCTCCC
DNA 2: TGGTGGCTACGACGGGATT
B15: UUAACAA (DNA:RNA)
RNA: B1 RNA with A25U, C27A, C28A, U29C, C30A, C31A
DNA 1: CAATCTGAATTCCGGTCTCCC
DNA 2: TGGTGGCTACGACGGGATT
B16: CGCGCUG (DNA:RNA)
RNA: B1 RNA with A25C, U26G, C28G, U29C, C30U, C31G
DNA 1: CAATCTGAATTCCGGTCTCCC
DNA 2: TGGTGGCTACGACGGGATT
B17: UCCAAGU (DNA:RNA)
RNA: B1 RNA with A25U, U26C, C28A, U29A, C30G, C31U
DNA 1: CAATCTGAATTCCGGTCTCCC
DNA 2: TGGTGGCTACGACGGGATT
B18: GGUGAUA (DNA:RNA)
RNA: GGGAGACCGGAAUUCAGAUUGUCCGGUGAUAUUAAAUCCCGUCGUAGCCACCA
DNA 1: CAATCTGAATTCCGGTCTCCC
DNA 2: TGGTGGCTACGACGGGATT
B19: GGGUCGU (DNA:RNA)
RNA: B18 RNA with U27G, G28U, A29C, U30G, A31U
DNA 1: CAATCTGAATTCCGGTCTCCC
DNA 2: TGGTGGCTACGACGGGATT
B20: CGUGGAC (DNA:RNA)
RNA: B18 RNA with G25C, A29G, U30A, A31C
DNA 1: CAATCTGAATTCCGGTCTCCC
DNA 2: TGGTGGCTACGACGGGATT
B21: GAGACGA (DNA:RNA)
RNA: B18 RNA with G26A, U27G, G28A, A29C, U30G
DNA 1: CAATCTGAATTCCGGTCTCCC
DNA 2: TGGTGGCTACGACGGGATT
B22: CGCAGGU (DNA:RNA)
RNA: B1 RNA with A25C, U26G, C28A, U29G, C30G, C31U
DNA 1: CAATCTGAATTCCGGTCTCCC
DNA 2: TGGTGGCTACGACGGGATT
B23: CGGCGAC (DNA:RNA)
RNA: B1 RNA with A25C, U26G, C27G, U29G, C30A
DNA 1: CAATCTGAATTCCGGTCTCCC
DNA 2: TGGTGGCTACGACGGGATT
B24: CUUAAAG (DNA:RNA)
RNA: B18 RNA with G25C, G26U, G28A, U30A, A31G
DNA 1: CAATCTGAATTCCGGTCTCCC
DNA 2: TGGTGGCTACGACGGGATT
B25: GUAAUUG (DNA:RNA)
RNA: B1 RNA with A25G, C27A, C28A, C30U, C31G
DNA 1: CAATCTGAATTCCGGTCTCCC
DNA 2: TGGTGGCTACGACGGGATT
B26: AGAGAUG (DNA:RNA)
RNA: B18 RNA with G25A, U27A, A31G
DNA 1: CAATCTGAATTCCGGTCTCCC
DNA 2: TGGTGGCTACGACGGGATT
B27: AUAGAGG (DNA:RNA)
RNA: B1 RNA with C27A, C28G, U29A, C30G, C31G
DNA 1: CAATCTGAATTCCGGTCTCCC
DNA 2: TGGTGGCTACGACGGGATT
B28: CCUUCCA (DNA:RNA)
RNA: B18 RNA with G25C, G26C, G28U, A29C, U30C
DNA 1: CAATCTGAATTCCGGTCTCCC
DNA 2: TGGTGGCTACGACGGGATT
B29: ACACCGA (DNA:RNA)
RNA: B1 RNA with U26C, C27A, U29C, C30G, C31A
DNA 1: CAATCTGAATTCCGGTCTCCC
DNA 2: TGGTGGCTACGACGGGATT
B30: UGAUCCG (DNA:RNA)
RNA: B1 RNA with A25U, U26G, C27A, C28U, U29C, C31G
DNA 1: CAATCTGAATTCCGGTCTCCC
DNA 2: TGGTGGCTACGACGGGATT
B31: GUAAUCC (DNA:RNA)
RNA: B1 RNA with A25G, C27A, C28A
DNA 1: CAATCTGAATTCCGGTCTCCC
DNA 2: TGGTGGCTACGACGGGATT

Numbering of substitutions follows the chain as printed; changes in the protein carry UniProt numbers. Some of the results follow.

For this assay, the target named is T1, RBFOX1 RRM. Put plainly: EMSA; HiTS-Eq, 1 nM pool, 10 min; buffer printed only for the single-RNA assays: 10 mM Tris pH 7.5, 150 mM NaCl, 3.4 mM EDTA, 0.001% NP-40, 30 C. As to conditions: tags: His6 N-terminal (pET28a); label: 5' 32P. Put shortly:
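Relative association constants, normalised to the cognate motif, were derived by comparing read counts of each RNA species with those of the control reaction. The RNA sequenced was the free fraction, separated by 8% native PAGE after a 10 min equilibration in 50 µL of 1 nM 5′-radiolabelled RNA (7 randomized nucleotides) with increasing concentrations of purified wild-type or mutant RbFox RRM.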
(In general: Mobility shift assays separate free from complexed probe on a gel.)
Regarding B1, the binding signal was 0.00195 KA relative to UGCAUGU. To B2 belongs 0.0151 KA relative to UGCAUGU. To B3 belongs 0.00651 KA relative to UGCAUGU; to B4, 0.0113 KA relative to UGCAUGU. With B5 the figure was 0.0202 KA relative to UGCAUGU; with B6, 0.0111 KA relative to UGCAUGU. Turning to B7, the binding signal is 0.00758 KA relative to UGCAUGU. For the molecule B8, the binding signal was 0.0188 KA relative to UGCAUGU. With B9 the figure was 0.0129 KA relative to UGCAUGU.

With B10, the binding signal is 0.00268 KA relative to UGCAUGU. To B11 belongs 0.0138 KA relative to UGCAUGU; to B12, 0.0207 KA relative to UGCAUGU.

In the case of B13, the binding signal is 0.0233 KA relative to UGCAUGU. Take B14: the binding signal is 0.00314 KA relative to UGCAUGU.

Take B15: the binding signal is 0.00291 KA relative to UGCAUGU.

Regarding B16, the binding signal is 0.0173 KA relative to UGCAUGU. With B17 the figure was 0.0041 KA relative to UGCAUGU. To B18 belongs 0.0103 KA relative to UGCAUGU. With B19 the figure was 0.0214 KA relative to UGCAUGU. Turning to B20, the binding signal is 0.0096 KA relative to UGCAUGU. To B21 belongs 0.00972 KA relative to UGCAUGU; to B22, 0.0129 KA relative to UGCAUGU; to B23, 0.014 KA relative to UGCAUGU. With B24 the figure was 0.00475 KA relative to UGCAUGU; with B25, 0.0106 KA relative to UGCAUGU; with B26, 0.011 KA relative to UGCAUGU. With B27 the figure was 0.00613 KA relative to UGCAUGU; with B28, 0.00375 KA relative to UGCAUGU; with B29, 0.000712 KA relative to UGCAUGU.

Turning to B30, the binding signal was 0.0149 KA relative to UGCAUGU. On to B31, for which the binding signal is 0.0106 KA relative to UGCAUGU.
